Assay results from PubChem BioAssay AID894 (National Center for Advancing Translational Sciences (NCATS), 2007).
In all, about 150,000 compounds went through this assay and about 6,500 (4.3%) were called active. The inconclusive results got no clear call from the source; some entries with a clear call stand among them for comparison. Calls follow the shape of the dose curve; as a rule, active = well fitted inhibition curve with a large enough effect (not every such curve was filed as active); inconclusive = small, poorly fitted or top-dose-only effect, or another doubt; inactive = no such curve, though single readings can be large or run the other way. Potencies of inconclusive entries are left out as doubtful fits.

Biological target: 15-hydroxyprostaglandin dehydrogenase [NAD(+)] (Homo sapiens) (UniProt P15428)
Experiment: qHTS Assay for Inhibitors of HPGD (15-Hydroxyprostaglandin Dehydrogenase)
Conditions: purified HPGD, NADH fluorescence kinetic, PGE2 substrate; activity change, negative = inhibition: hits give low values
Procedure, shortened: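 20 nM HPGD preincubated 15 min at room temperature with compound in 50 mM Tris-HCl pH 8, 0.01% Tween 20. Started with 1 mM NAD+ and 30 uM prostaglandin E2; NADH fluorescence (360/450 nm) read 5 times over 30-s intervals, last minus first.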
% is scaled to controls: 0 for no effect and ±100 for the full control effect; potency is read from the fitted curve at half-maximal effect; tags tell the direction and shape of the fitted curve.

Sequence of UniProt P15428 (P15428 whole entry, looked up): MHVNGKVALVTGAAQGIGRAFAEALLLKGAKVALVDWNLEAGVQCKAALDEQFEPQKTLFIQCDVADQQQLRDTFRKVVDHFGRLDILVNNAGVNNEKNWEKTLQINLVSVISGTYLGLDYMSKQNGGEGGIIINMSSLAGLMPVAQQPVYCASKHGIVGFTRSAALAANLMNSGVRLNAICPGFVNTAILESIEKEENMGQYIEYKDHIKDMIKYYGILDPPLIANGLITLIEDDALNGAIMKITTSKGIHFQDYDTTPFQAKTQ

**Q.** For Brc1ccc(-c2cnc(-c3cccs3)o2)cc1, which Potency is on record?
**A.** inconclusive [inhibitor, partial curve]

**Q.** For Cc1nc2cc(-c3cccc(F)c3)nn2c(C)c1CCC(=O)NC(C)CCc1ccco1 (stereo not given), which Potency is on record?
**A.** inconclusive [inhibitor, partial curve]

**Q.** Which activity change, negative = inhibition does the source give for O=C(O)C1C(c2ccccc2)C(C(=O)Oc2ccccc2)C1c1ccccc1 (stereo not given) here?
**A.** inactive: -5.39%

**Q.** For COC(=O)COc1ccc(/C=N/NC(=O)c2ccc(N(Cc3ccccc3)S(C)(=O)=O)cc2)cc1, which activity change, negative = inhibition is on record?
**A.** inactive: -6.21%

**Q.** CCc1ccc2nc(N3C(=O)C(O)=C(C(=O)c4ccco4)C3c3cccs3)sc2c1 (stereo not given) was tested. Which Potency did it give?
**A.** active: 20 µM

**Q.** How did the activity change, negative = inhibition turn out when O=C1N(CCCCN2C(=O)C3(OCCO3)c3ccccc32)c2ccccc2C12OCCO2 was run?
**A.** inactive: -1.8%

**Q.** For COc1ccc(OC)c(NC(=S)NCc2cccs2)c1, which Potency is on record?
**A.** inconclusive [inhibitor, partial curve]

**Q.** With CCOc1ccc(CSC2=NCCN2)cc1Cl as the molecule, how does the activity change, negative = inhibition read?
**A.** inactive: -7.85%

**Q.** Which activity change, negative = inhibition does the source give for O=S(=O)(c1cccs1)N1CCN(CC(O)COc2cc(Cl)ccc2Cl)CC1 (stereo not given) here?
**A.** inactive: -7.88%

**Q.** For COc1ccc2ncc(OC(C)=O)cc2c1, which Potency is on record?
**A.** inconclusive [inhibitor, partial curve]

**Q.** For CCCCC(=O)Nc1ccc(NC(=S)NC(=O)CC(C)C)cc1OC, which Potency is on record?
**A.** inconclusive [inhibitor, partial curve]

**Q.** CCOC(=O)c1cnc(SC)nc1Nc1cccc(F)c1 was tested. Which activity change, negative = inhibition did it give?
**A.** inactive: -9.42%

**Q.** For CCOC(=O)c1sc2nc(CC(=O)OC)nc(N3CCN(c4ccccn4)CC3)c2c1C, which Potency is on record?
**A.** inconclusive [inhibitor, single point]

**Q.** For Cc1ccc2cc(C(c3nnnn3C3CCCC3)N(Cc3cccnc3)Cc3ccco3)c(=O)[nH]c2c1 (stereo not given), which activity change, negative = inhibition is on record?
**A.** inactive: -6.93%

**Q.** With Nc1nc2[nH]c(=O)cnc2c(=O)[nH]1 as the molecule, how does the activity change, negative = inhibition read?
**A.** inactive: -21.4%

**Q.** O=C(CN1CCN(CCN2C(=O)c3cccc4cccc(c34)C2=O)CC1)c1ccc(Cl)cc1 was tested. Which Potency did it give?
**A.** inconclusive [inhibitor, single point]

**Q.** O=C(Cn1cnc2c(nnn2Cc2ccccc2F)c1=O)NCc1ccco1 was tested. Which Potency did it give?
**A.** active: 31.6 µM

**Q.** How did the Potency turn out when O=C(c1ccccc1F)N(Cc1ccc2c(c1)OCO2)Cc1cc2cc3c(cc2n2nnnc12)OCO3 was run?
**A.** inconclusive [inhibitor, partial curve]

**Q.** For O=c1c[n+]([O-])c2ccccc2n1OCc1ccccn1, which activity change, negative = inhibition is on record?
**A.** inactive: -20.5%

**Q.** Which Potency does the source give for O=C(N1CCOCC1)N1CCN(c2ccccn2)CC1 here?
**A.** inconclusive [inhibitor, partial curve]

**Q.** For Fc1ccc(N/N=C/C=C/c2ccccc2)c(F)c1, which Potency is on record?
**A.** inconclusive [inhibitor, partial curve]

**Q.** For COCC(=O)Nc1cc(C(=O)NCC(C)C)ccc1Cl, which Potency is on record?
**A.** inconclusive [inhibitor, single point]

**Q.** How did the Potency turn out when COCCCNC(=O)CSC1=Nc2ccccc2C2=NC(CC(=O)NCc3ccccc3)C(=O)N12 (stereo not given) was run?
**A.** inconclusive [inhibitor, partial curve]

**Q.** CCc1c(C)nc2cc(-c3ccc(OC)c(OC)c3)nn2c1N1CCC(C)CC1 was tested. Which Potency did it give?
**A.** inconclusive [inhibitor, full curve]

**Q.** Which Potency does the source give for CN1CCN(c2nc3c(c(=O)[nH]c(=O)n3C)n2Cc2cccc3ccccc23)CC1 here?
**A.** inconclusive [inhibitor, partial curve]

**Q.** For COCCNC(=O)c1csc2c1CCCC2, which Potency is on record?
**A.** active: 15.8 µM

**Q.** For CCOC(=O)c1nn(-c2ccc(OCC)cc2)c2nc(-c3cccc(OC)c3)c(C#N)c(=O)n12, which Potency is on record?
**A.** inconclusive [inhibitor, partial curve]

**Q.** For CC(C)c1ccc(NC(=O)COC(=O)/C=C/c2cccc([N+](=O)[O-])c2)cc1, which activity change, negative = inhibition is on record?
**A.** inactive: -6.88%

**Q.** With COC(=O)C1=CN(C2CC2)C=C(C(=O)OC)C1c1ccc(C(=O)OC)cc1 as the molecule, how does the Potency read?
**A.** inconclusive [inhibitor, partial curve]

**Q.** Which activity change, negative = inhibition does the source give for CCCOc1ccc(Cc2c(Cl)nc(SC)nc2N(C)C)cc1 here?
**A.** inactive: -14.4%

**Q.** COc1cc(C(=S)N2CCCC2)cc(OC)c1OS(=O)(=O)c1ccc(NC(C)=O)cc1 was tested. Which Potency did it give?
**A.** active: 22.4 µM

**Q.** C[C@H](O)C(=O)Nc1c(I)c(C(=O)NC(CO)CO)c(I)c(C(=O)NC(CO)CO)c1I was tested. Which activity change, negative = inhibition did it give?
**A.** inactive: -8.97%

**Q.** With CCN(CC)S(=O)(=O)c1ccc(NC(=O)c2cccc3c2C(=O)N(CCOC)C3)cc1 as the molecule, how does the Potency read?
**A.** inconclusive [inhibitor, partial curve]

**Q.** With COc1ccc2oc(-c3ccc(C)c(NC(=O)CSc4ccc(Cl)cc4)c3)nc2c1 as the molecule, how does the Potency read?
**A.** inconclusive [inhibitor, partial curve]

**Q.** S=c1[nH]nc(-c2ccc3ccccc3n2)o1 was tested. Which Potency did it give?
**A.** inconclusive [inhibitor, single point]

**Q.** S=c1[nH]cc(-c2ccccc2)n1-c1cccc(Cl)c1 was tested. Which Potency did it give?
**A.** inconclusive [inhibitor, partial curve]

**Q.** Which Potency does the source give for O=C(N/N=C/c1c[nH]c2ccccc12)c1cc(-c2ccc(-c3ccccc3)cc2)n[nH]1 here?
**A.** inconclusive [inhibitor, partial curve]

**Q.** With Cc1nn(Cc2cccc(C(=O)N3CCCC(C)C3)c2)c(C)c1[N+](=O)[O-] (stereo not given) as the molecule, how does the Potency read?
**A.** active: 14.1 µM

**Q.** With Cc1oc(C(=O)O)cc1COc1ccc2c3c(c(=O)oc2c1C)CCCC3 as the molecule, how does the Potency read?
**A.** inconclusive [inhibitor, partial curve]

**Q.** How did the Potency turn out when Clc1ccc(-c2n[nH]c3c2CCC3)cc1Cl was run?
**A.** active: 17.8 µM

**Q.** With C[C@]12CC[C@H]3c4ccc(O)cc4CC[C@@H]3[C@H]1CC[C@@H]2OC(=O)CCc1ccccc1 as the molecule, how does the activity change, negative = inhibition read?
**A.** inactive: -10.4%

**Q.** With CCCOc1ccc2c(=O)c(N3C(=O)c4ccccc4C3=O)c(C)oc2c1 as the molecule, how does the activity change, negative = inhibition read?
**A.** inactive: -10.3%

**Q.** Which Potency does the source give for O=C(NCCCN1CCCC1=O)c1ccccc1NS(=O)(=O)c1ccc(Br)cc1 here?
**A.** inconclusive [inhibitor, partial curve]

**Q.** Which Potency does the source give for O=C1c2cccc3c(Nc4ccccc4Cl)c([N+](=O)[O-])cc(c23)C(=O)N1CCO here?
**A.** active: 1.41 µM

**Q.** For COc1cccc(-c2cc(C(F)(F)F)n3ncc(C(=O)NCC4CCCO4)c3n2)c1 (stereo not given), which Potency is on record?
**A.** inconclusive [inhibitor, partial curve]

**Q.** How did the activity change, negative = inhibition turn out when CCOC(=O)N1CCC(Nc2ncnc3c2cnn3-c2ccc(C)cc2C)CC1 was run?
**A.** inactive: -12.4%

**Q.** With Brc1cccc(-c2nnc3sc(CNCc4ccco4)cn23)c1 as the molecule, how does the Potency read?
**A.** inconclusive [inhibitor, partial curve]

**Q.** OCCCc1nc2n(n1)C(c1ccccc1)C=C(c1ccccc1)N2 (stereo not given) was tested. Which Potency did it give?
**A.** inconclusive [inhibitor, single point]

**Q.** Which Potency does the source give for Cc1ccn2cc(CCNC(=O)C3CCCCC3)nc2c1 here?
**A.** inconclusive [inhibitor, partial curve]

**Q.** Which Potency does the source give for CCn1c(SCC(=O)N2CCCCC2)nc(O)cc1=O here?
**A.** active: 0.282 µM

**Q.** For CCCCNC(=O)CSc1cc(=O)n(C)c2ccccc12, which Potency is on record?
**A.** active: 14.1 µM

**Q.** How did the Potency turn out when COc1ccc(/C=C2\CCCC3C2=NN(C(=O)COC(=O)CNC(=O)c2ccccc2)C3c2ccc(OC)cc2)cc1 (stereo not given) was run?
**A.** inconclusive [inhibitor, single point]

**Q.** Which Potency does the source give for Cc1cccc(C#Cc2ccccc2)n1 here?
**A.** inconclusive [inhibitor, partial curve]

**Q.** For COc1ccc(/C=C/C(=O)Nc2nonc2NC(C)=O)cc1, which Potency is on record?
**A.** inconclusive [inhibitor, partial curve]

**Q.** Which Potency does the source give for CC(=O)Nc1ccc(/C=N/NC(=O)c2cc3cc(C)ccc3nc2C)cc1 here?
**A.** inconclusive [inhibitor, partial curve, poor fit]

**Q.** For CCc1cc2c(-c3ccccc3)cc(=O)oc2cc1OC(=O)c1cccs1, which Potency is on record?
**A.** active: 3.16 µM

**Q.** Which activity change, negative = inhibition does the source give for COc1ccc(C/C(O)=C(\C#N)c2nc3ccccc3s2)cc1 here?
**A.** inactive: -26.5%

**Q.** With CCc1ccc(NS(=O)(=O)c2ccc3[nH]cc(C(=O)N4CCCCC4)c(=O)c3c2)cc1 as the molecule, how does the Potency read?
**A.** inconclusive [inhibitor, partial curve]

**Q.** Cc1ccc(C(=O)N/C(=C/C=C/c2ccccc2)C(=O)NCc2ccco2)cc1 was tested. Which Potency did it give?
**A.** inconclusive [inhibitor, partial curve, poor fit]

**Q.** For Cc1ccc(C2C3=C(CCCC3=O)Nc3[nH]c(=S)[nH]c(=O)c32)cc1 (stereo not given), which Potency is on record?
**A.** active: 10 µM

**Q.** For C=CCn1c(-c2ccccc2)c[nH]c1=S, which Potency is on record?
**A.** inconclusive [inhibitor, partial curve]

**Q.** Which Potency does the source give for Nc1c(-c2cccc(Cl)c2)cnn1-c1cccc(C(F)(F)F)c1 here?
**A.** active: 12.6 µM

**Q.** Which Potency does the source give for CCCCn1c(SCC(=O)NCc2ccccc2)nc2ccc(N3CCOCC3)cc2c1=O here?
**A.** inconclusive [inhibitor, partial curve]

**Q.** How did the activity change, negative = inhibition turn out when O=C(Nc1cc(C(F)(F)F)cc(C(F)(F)F)c1)c1ccc(Cn2cc(C(F)(F)F)ccc2=O)cc1 was run?
**A.** inactive: -9.55%

**Q.** CCOC(=O)c1c(NC(=O)c2c(-c3ccccc3)noc2C)sc(C)c1-c1ccccc1 was tested. Which Potency did it give?
**A.** inconclusive [inhibitor, partial curve]

**Q.** With O=c1c2ccccc2sc2nc(C3CCCCC3)n(Cc3ccco3)c(=O)c12 as the molecule, how does the Potency read?
**A.** active: 15.8 µM

**Q.** How did the Potency turn out when O=C(O)CCC(=O)N1CCc2cc(S(=O)(=O)NCc3cccs3)ccc21 was run?
**A.** active: 25.1 µM

**Q.** Which Potency does the source give for CCC1CCCCN1C(=O)COc1cc(=O)n(C)c2ccccc12 (stereo not given) here?
**A.** inconclusive [inhibitor, partial curve, poor fit]

**Q.** Which Potency does the source give for Cc1cc(C)cc(N(CC(=O)NCc2ccco2)C(=O)c2snc(C(N)=O)c2N)c1 here?
**A.** inconclusive [inhibitor, partial curve]

**Q.** With O=C(CN1c2cccc3cccc(c23)S1(=O)=O)N1CCOCC1 as the molecule, how does the Potency read?
**A.** inconclusive [inhibitor, partial curve]
